{"source": "PubChem BioAssay AID1460", "about": "(National Center for Advancing Translational Sciences (NCATS), 2008)", "note": "Several values for one entry are separate records, joined by “and”; a condition that tells them apart may be missing. Equal entries are not always repeated. Hit rate of the full screen: of about 270,000 compounds, about 5,800 (2.1%) were called active. Inconclusive means that the source gave no clear call. Such entries were picked first, then a sample of the others. The call rests on the fitted dose curve; in most records, active means well fitted inhibition curve with a large enough effect; inconclusive means small, poorly fitted or top-dose-only effect; inactive means flat fitted curve, though single readings scatter. A potency beside an inconclusive call is a rough fit, not a confirmed value. On the % scale 0 is the no-effect control and ±100 the full control effect; potency means the concentration at half of the fitted maximal effect; tags describe the fitted curve by direction and shape.", "data": [{"biological_target": "Microtubule-associated protein tau (Homo sapiens) (UniProt P10636)", "sequence (P10636 whole entry, looked up, the tested form may be a part)": "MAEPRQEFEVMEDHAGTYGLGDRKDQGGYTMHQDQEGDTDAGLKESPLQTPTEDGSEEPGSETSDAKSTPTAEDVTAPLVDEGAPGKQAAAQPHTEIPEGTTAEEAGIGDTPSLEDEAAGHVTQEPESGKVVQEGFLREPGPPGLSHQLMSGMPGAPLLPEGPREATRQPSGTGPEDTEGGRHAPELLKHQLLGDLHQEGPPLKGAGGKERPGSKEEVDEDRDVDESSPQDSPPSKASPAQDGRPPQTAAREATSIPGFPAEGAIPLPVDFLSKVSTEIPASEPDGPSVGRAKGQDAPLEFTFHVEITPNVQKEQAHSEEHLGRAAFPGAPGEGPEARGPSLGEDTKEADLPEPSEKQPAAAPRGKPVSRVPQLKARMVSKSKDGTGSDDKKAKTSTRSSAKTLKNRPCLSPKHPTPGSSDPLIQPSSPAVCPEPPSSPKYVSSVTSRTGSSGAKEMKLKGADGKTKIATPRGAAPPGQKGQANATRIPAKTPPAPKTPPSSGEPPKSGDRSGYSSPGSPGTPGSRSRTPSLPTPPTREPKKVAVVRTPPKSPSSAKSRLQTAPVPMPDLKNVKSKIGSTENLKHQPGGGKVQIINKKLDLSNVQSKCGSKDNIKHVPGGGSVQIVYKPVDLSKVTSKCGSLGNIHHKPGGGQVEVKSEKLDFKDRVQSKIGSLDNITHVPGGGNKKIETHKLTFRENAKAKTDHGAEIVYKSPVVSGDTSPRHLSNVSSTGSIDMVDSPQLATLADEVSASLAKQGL", "experiment": "qHTS for Inhibitors of Tau Fibril Formation, Thioflavin T Binding; further: nearly all actives have a fitted effect of over 55% in size", "conditions": "recombinant tau K18 P301L (four-repeat tau fragment), heparin-induced fibrillization, ThT fluorescence; series mostly up to 57.4 µM; activity, negative = inhibition: at the top concentration", "in_short": "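Tau K18 P301L fragment (15 uM unlabeled plus 0.24 uM Alexa 594-labeled) in 100 mM sodium acetate pH 7 with compound, fibrillization induced by 20 uM heparin for 6 hr at 37 C. Thioflavin T (30 uM) added, fluorescence read after 1 hr (ex 450, em 510 nm).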", "values": [{"smiles": "Cc1ccc(NC(=O)CCC(=O)c2cccs2)cc1", "activity, negative = inhibition": "inactive: -11.5%"}, {"smiles": "C(=C\\c1ccccc1)/CSc1ccccn1", "activity, negative = inhibition": "inactive: -9.93%"}, {"smiles": "CCn1c(NCc2cccc(Cl)c2)nc2ccccc21", "activity, negative = inhibition": "inactive: -3.43%"}, {"smiles": "O=c1cc(-c2ccc(O)cc2)oc2ccc(O)cc12", "Potency": "inconclusive: 12.6 µM [inhibitor, partial curve] and inconclusive: 3.16 µM [inhibitor, partial curve]"}, {"smiles": "COc1ccc(NC(C)=O)cc1NC(=O)c1ccc(C#N)cc1", "activity, negative = inhibition": "inactive: -17.2%"}, {"smiles": "COc1ccccc1NC(=O)/C(C#N)=C/C=C/c1ccco1", "Potency": "inconclusive: 0.794 µM [inhibitor, full curve]"}, {"smiles": "Cc1ccc2cc(C(c3nnnn3C3CCCC3)N3CCN(c4ccccc4)CC3)c(=O)[nH]c2c1", "note": "(stereo not given)", "activity, negative = inhibition": "inactive: -18.3%"}, {"smiles": "COCCN(CCOC)C(=O)c1cc2c(=O)n3ccccc3nc2n1C", "activity, negative = inhibition": "inactive: -4.04%"}, {"smiles": "O=C(O)CCC(=O)NC1CCCCC1", "activity, negative = inhibition": "inactive: -4.22%"}, {"smiles": "CCN(c1ccccc1)S(=O)(=O)c1ccc(Cl)c(NC(=O)COC(=O)c2cc(O)c3ccccc3c2O)c1", "Potency": "active: 11.2 µM"}, {"smiles": "Clc1ccc(OCc2nn3c(-c4ccco4)nnc3s2)cc1", "Potency": "inconclusive: 25.1 µM [inhibitor, single point]"}, {"smiles": "CCN(CC)S(=O)(=O)c1ccc(N2CCOCC2)c(NC(=O)c2cc(-c3ccccn3)nc3ccccc23)c1", "activity, negative = inhibition": "inactive: 4.47%"}, {"smiles": "Cc1cccc(C2=NN(c3ccccc3)[C@H](CO)[C@H]2c2ccc(Cl)cc2)c1", "Potency": "inconclusive: 12.6 µM [inhibitor, partial curve]"}, {"smiles": "COc1ccc(-n2cc(C(=O)NCc3cccc(OC)c3)c3ccccc3c2=O)cc1", "Potency": "inconclusive: 31.6 µM [inhibitor, single point]"}, {"smiles": "COc1ccccc1NC(=O)CCn1c(=O)oc2cc(Cl)ccc21", "activity, negative = inhibition": "inactive: -2.46%"}, {"smiles": "O=S1(=O)C[C@@H](O)[C@@H](Nc2ccc(Cl)cc2)C1", "activity, negative = inhibition": "inactive: -10.5%"}, {"smiles": "COc1ccc(Cl)cc1NC(=O)c1nn(C)c2c1CS(=O)(=O)c1ccccc1-2", "activity, negative = inhibition": "inactive: 2.81%"}, {"smiles": "CC(=O)OCC1OC(c2cc(C)cc(C)c2)C=CC1OC(C)=O", "note": "(stereo not given)", "activity, negative = inhibition": "inactive: -7.7% [at 11.5 µM]"}, {"smiles": "CCOc1cc(-c2nc(-c3ccc(-c4ccc(OC)cc4)nc3OC)no2)cc(OCC)c1OCC", "activity, negative = inhibition": "inactive: -20.1%"}, {"smiles": "Cc1cc(=O)[nH]c(SCC(=O)Nc2ncc(S(=O)(=O)c3ccc([N+](=O)[O-])cc3)s2)n1", "activity, negative = inhibition": "inactive: -21.5%"}, {"smiles": "CC(=O)c1ccc(N2CCN(C3C(=O)c4ccccc4N3C(C)=O)CC2)cc1", "note": "(stereo not given)", "Potency": "inconclusive: 28.2 µM [inhibitor, partial curve]"}, {"smiles": "COCCN1Cc2cccc(C(=O)Nc3c(C)cc(C)cc3C)c2C1=O", "activity, negative = inhibition": "inactive: -17.1%"}, {"smiles": "O=C(COC(=O)CCCSc1nc2ccccc2[nH]1)Nc1ccc(Oc2ccccc2)cc1", "Potency": "inconclusive: 39.8 µM [activator, single point]"}, {"smiles": "CCN1C(=S)SC(=O)C1=C1C=C(C)N(Cc2ccco2)C(C)=C1", "Potency": "inconclusive: 5.01 µM [inhibitor, partial curve]"}, {"smiles": "Nn1cnc2c([nH]c3ccccc32)c1=O", "activity, negative = inhibition": "inactive: 5.3%"}, {"smiles": "O=C1c2sc3nc4n(c(=O)c3c2CCC1Br)CCCCC4", "note": "(stereo not given)", "Potency": "inconclusive: 25.1 µM [inhibitor, partial curve]"}, {"smiles": "O=C(Nc1ccc2c(c1)OCO2)C(c1ccc(Cl)cc1)N1CCN(C(=O)c2ccco2)CC1", "note": "(stereo not given)", "activity, negative = inhibition": "inactive: -7.07%"}, {"smiles": "Cc1cc(C)c(C(=O)Nc2ccccc2)c(SCC(=O)Nc2ccc(Br)cc2C)n1", "activity, negative = inhibition": "inactive: 10.3%"}, {"smiles": "CC(NC(=O)Cn1c(-c2cccs2)cc2cc(F)ccc21)c1ccccc1", "note": "(stereo not given)", "activity, negative = inhibition": "inactive: 2.11%"}, {"smiles": "Cn1c(=O)[nH]c(=O)c2c1nc(SCCN1CCCCC1)n2Cc1ccccc1", "activity, negative = inhibition": "inactive: -1.44%"}, {"smiles": "Cc1cccc(OCC(=O)Nc2cc(C)ccc2O)c1", "Potency": "inconclusive: 35.5 µM [inhibitor, partial curve]"}, {"smiles": "Fc1ccc(F)c(C2=NNC(=NCC3CCCO3)SC2)c1", "note": "(stereo not given)", "Potency": "inconclusive: 11.2 µM [inhibitor, partial curve]"}, {"smiles": "O=C(Nc1ccc(N=Nc2ccccc2)c(NC(=O)C2CCCO2)c1)C1CCCO1", "note": "(stereo not given)", "Potency": "active: 14.1 µM"}, {"smiles": "Cc1nc2nc(NC(=O)c3ccc(Cl)cc3)[nH]n2c(=O)c1Cc1ccccc1", "activity, negative = inhibition": "inactive: -17.9%"}, {"smiles": "CCc1ccc(NC(=O)CSc2nc(=O)n(Cc3ccco3)c3c2CCC3)cc1", "activity, negative = inhibition": "inactive: -13.9%"}, {"smiles": "COc1cccc(C2=CC(c3ccc(N(C)C)cc3)n3nnnc3N2)c1", "note": "(stereo not given)", "Potency": "inconclusive: 8.91 µM [inhibitor, full curve]"}, {"smiles": "CCCc1nc2oc3c(NCCOCCO)ncnc3c2c2c1COC(C)(C)C2", "activity, negative = inhibition": "inactive: 0.162%"}, {"smiles": "O=c1c(Cl)c(Nc2cccc(Cl)c2)cnn1-c1nc2ccccc2s1", "Potency": "inconclusive: 25.1 µM [inhibitor, partial curve]"}, {"smiles": "Cc1nc(SCC(=O)c2cccs2)c2oc3ccccc3c2n1", "Potency": "inconclusive: 17.8 µM [inhibitor, partial curve]"}, {"smiles": "O=C(CCc1ccc(O)cc1)c1c(O)cc(O)cc1O", "Potency": "inconclusive: 17.8 µM [inhibitor, partial curve, poor fit]"}, {"smiles": "COc1ccc(Cl)c2c1[nH]c1nc(SCc3ccccn3)nnc12", "Potency": "inconclusive: 8.91 µM [inhibitor, partial curve]"}, {"smiles": "COc1ccc(N=Cc2c(O)n(-c3cccc(C)n3)c(=O)c3ccccc23)cc1", "Potency": "inconclusive: 14.1 µM [inhibitor, partial curve]"}, {"smiles": "O=C(CSc1nc(=O)n(Cc2ccco2)c2c1CCC2)NCc1ccc(F)cc1", "activity, negative = inhibition": "inactive: -2.31%"}, {"smiles": "O=C(N=Nc1c(O)[nH]c2ccccc12)c1ccco1", "Potency": "inconclusive: 15.8 µM [inhibitor, partial curve]"}, {"smiles": "COc1ccccc1N1C(=O)CC(N(O)c2ccccc2)C1=O", "note": "(stereo not given)", "Potency": "inconclusive: 1.58 µM [inhibitor, full curve, poor fit]"}, {"smiles": "COc1ccc(/C=C/C(=O)Oc2cccc(/C=N/NC(=O)c3cccc(F)c3)c2)cc1", "Potency": "inconclusive: 15.8 µM [inhibitor, partial curve]"}, {"smiles": "CN1c2ccccc2C(C)(C)C12CC(CCl)=NO2", "note": "(stereo not given)", "Potency": "inconclusive: 14.1 µM [inhibitor, partial curve]"}, {"smiles": "Cc1ccc(NC(=O)CNc2ccc(OC(C)C)cc2)cc1", "Potency": "inconclusive: 11.2 µM [inhibitor, partial curve]"}, {"smiles": "CCOC(=O)c1ccc(CC(=O)c2ccc(O)cc2O)o1", "Potency": "inconclusive: 4.47 µM [inhibitor, partial curve, poor fit]"}, {"smiles": "CN=C1S/C(=C/c2cn(CC(=O)OC)c3ccccc23)C(=O)N1C", "Potency": "inconclusive: 10 µM [inhibitor, partial curve, poor fit]"}, {"smiles": "CC(C)(C)C(=O)N1CCN(c2nc3c(F)cccc3s2)CC1", "Potency": "inconclusive: 31.6 µM [inhibitor, single point]"}, {"smiles": "Cc1ccc(N2C(=O)CC(Sc3ccccc3C(=O)O)C2=O)cc1", "note": "(stereo not given)", "Potency": "inconclusive: 31.6 µM [inhibitor, single point]"}, {"smiles": "O=C(CN1CCCCCC1)NCc1ccccc1", "activity, negative = inhibition": "inactive: 2.28%"}, {"smiles": "CN=c1scc(-c2ccccc2F)n1/N=C/c1ccc[nH]1", "Potency": "inconclusive: 25.1 µM [inhibitor, partial curve]"}, {"smiles": "Cc1cccc(CNc2cc(-c3ccc(N(C)C)cc3)ncn2)c1", "Potency": "inconclusive: 12.6 µM [inhibitor, partial curve]"}, {"smiles": "COC(=O)c1ccc(OCCOCCOc2cccc3ccc(C)nc23)cc1", "Potency": "inconclusive: 28.2 µM [inhibitor, single point]"}, {"smiles": "COc1ccc(OC)c(S(=O)(=O)N(C(C)=O)c2ccc3oc(=O)sc3c2)c1", "Potency": "inconclusive: 20 µM [inhibitor, partial curve]"}, {"smiles": "COc1cccc(C2C(C(=O)Nc3ccccc3)=C(C)Nc3nc(-c4ccccc4)nn32)c1", "note": "(stereo not given)", "activity, negative = inhibition": "inactive: -7.64%"}, {"smiles": "COc1ccc(OC)c(NC(=O)CSc2cn(CC(=O)N3CCOCC3)c3ccccc23)c1", "activity, negative = inhibition": "inactive: -5.56%"}, {"smiles": "CS(=O)(=O)N(CC(=O)NCCSc1ccccc1)c1cc(C(F)(F)F)ccc1Cl", "activity, negative = inhibition": "inactive: -5.09%"}, {"smiles": "Oc1c(Br)cc(Br)cc1-c1nc2ccccc2s1", "activity, negative = inhibition": "inactive: -12.3%"}, {"smiles": "COc1ccc(-c2cc(=O)c3cc(OC)ccc3o2)cc1", "Potency": "inconclusive: 2.82 µM [inhibitor, full curve] and inconclusive: 2.51 µM [inhibitor, full curve, poor fit]"}, {"smiles": "O=C1/C(=C/c2cccs2)SC(=S)N1NS(=O)(=O)c1ccccc1", "Potency": "active: 17.8 µM"}, {"smiles": "CCc1ccc(NC(=O)N2CCC(c3ccccc3)C2)cc1", "note": "(stereo not given)", "Potency": "inconclusive: 7.94 µM [inhibitor, partial curve]"}, {"smiles": "COc1ccc2c(c1)c(C(C)=O)c(C)n2-c1ccccc1", "Potency": "inconclusive: 39.8 µM [inhibitor, partial curve, poor fit]"}, {"smiles": "CC(NC(=O)CCCCCN1C(=O)c2ccccc2C1=O)c1ccc2c(c1)CCCC2", "note": "(stereo not given)", "Potency": "inconclusive: 31.6 µM [inhibitor, partial curve]"}, {"smiles": "Cc1nn(CC(C)C)c(=S)[nH]c1=O", "activity, negative = inhibition": "inactive: -2.5%"}, {"smiles": "CC(C)(C)c1ccc(SCCc2cccnc2)cc1", "activity, negative = inhibition": "inactive: -12.5%"}, {"smiles": "COc1ccc(NC(=O)CSc2c3c(nc4ccccc24)CCCC3)c(OC)c1", "Potency": "inconclusive: 11.2 µM [inhibitor, partial curve]"}, {"smiles": "CCc1ccc(OC(C)C(=O)Nc2c(C(=O)c3ccccc3)oc3ccccc23)cc1", "note": "(stereo not given)", "activity, negative = inhibition": "inactive: -0.4%"}, {"smiles": "Cc1[nH]n(C(N)=S)c(=O)c1N=Nc1ccc(S(=O)(=O)N2CCCC2)cc1", "Potency": "inconclusive: 25.1 µM [inhibitor, partial curve]"}, {"smiles": "Fc1ccc(NC(=S)Nc2cccnc2)cc1Cl", "activity, negative = inhibition": "inactive: -4.29%"}, {"smiles": "Cn1c(-c2ccc(F)cc2)cnc1NCc1cccc(F)c1", "activity, negative = inhibition": "inactive: -10.3%"}, {"smiles": "Cc1ccc(S(=O)(=O)c2c(N)n(/N=C/c3ccco3)c3nc4ccccc4nc23)cc1", "Potency": "inconclusive: 39.8 µM [inhibitor, single point]"}, {"smiles": "Cc1ccc(OC(=O)CCN2C(=O)c3ccccc3C2=O)cc1C", "Potency": "inconclusive: 39.8 µM [inhibitor, single point]"}]}]}
